{
  "source": "the supplement of paper PMC8728848",
  "assay_in_all_cases": "glycan array binding signal (z-score within array); higher = stronger binding",
  "settings_in_all_cases": "glycan notation: IUPAC condensed, linker removed",
  "key": {"[1]": {"target": "Gal(b1-3)GlcNAc(b1-3)Gal(b1-4)GlcNAc(b1-2)[Gal(b1-3)GlcNAc(b1-3)Gal(b1-4)GlcNAc(b1-6)]Man(a1-6)[Gal(b1-3)GlcNAc(b1-3)Gal(b1-4)GlcNAc(b1-2)Man(a1-3)]Man(b1-4)GlcNAc(b1-4)[Fuc(a1-6)]GlcNAc", "in_short": "(§1)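 Glycan array binding is given as a within-array Z-score, which can be read as non-binding when negative. The arrays, 3228 of them, came from the Consortium for Functional Glycomics database and were retained only where the protein sequence was available. Z-scores were averaged across arrays of the same protein sequence at different concentrations or buffers and across linkers.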"}, "[2]": {"target": "Gal(b1-3)GlcNAc(b1-3)Gal(b1-4)GlcNAc(b1-3)Gal(b1-4)GlcNAc(b1-2)[Gal(b1-3)GlcNAc(b1-3)Gal(b1-4)GlcNAc(b1-3)Gal(b1-4)GlcNAc(b1-6)]Man(a1-6)[Gal(b1-3)GlcNAc(b1-3)Gal(b1-4)GlcNAc(b1-3)Gal(b1-4)GlcNAc(b1-2)Man(a1-3)]Man(b1-4)GlcNAc(b1-4)[Fuc(a1-6)]GlcNAc", "in_short": "as §1"}, "[3]": {"target": "Gal(b1-3)GlcNAc(b1-3)Gal(b1-4)GlcNAc(b1-6)[Gal(b1-3)GlcNAc(b1-3)]Gal(b1-4)Glc", "in_short": "as §1"}, "[4]": {"target": "Gal(b1-3)GlcNAc(b1-3)Gal(b1-4)[Fuc(a1-3)]GlcNAc", "in_short": "as §1"}, "[5]": {"target": "Gal(b1-3)GlcNAc(b1-3)Gal(b1-4)[Fuc(a1-3)]GlcNAc(b1-6)[Gal(b1-3)GlcNAc(b1-3)]Gal(b1-4)Glc", "in_short": "as §1"}, "[6]": {"target": "Gal(b1-3)GlcNAc(b1-3)GalNAc", "in_short": "as §1"}, "[7]": {"target": "Gal(b1-3)GlcNAc(b1-6)Gal(b1-4)GlcNAc", "in_short": "as §1"}, "[8]": {"target": "Gal(b1-3)GlcNAc(b1-6)GalNAc", "in_short": "as §1"}, "[9]": {"target": "Gal(b1-3)GlcNAc(b1-6)[Gal(b1-3)]GalNAc", "in_short": "as §1"}, "Gal(b1-3)GlcNAc6S": {"target": "Gal(b1-3)GlcNAc6S", "in_short": "as §1"}, "[10]": {"target": "Gal(b1-3)[Fuc(a1-4)]GlcNAc", "in_short": "as §1"}, "[11]": {"target": "Gal(b1-3)[Fuc(a1-4)]GlcNAc(b1-2)Man", "in_short": "as §1"}, "[12]": {"target": "Gal(b1-3)[Fuc(a1-4)]GlcNAc(b1-2)Man(a1-3)[Gal(b1-3)[Fuc(a1-4)]GlcNAc(b1-2)Man(a1-6)]Man(b1-4)GlcNAc(b1-4)[Fuc(a1-6)]GlcNAc", "in_short": "as §1"}, "[13]": {"target": "Gal(b1-3)[Fuc(a1-4)]GlcNAc(b1-3)Gal(b1-3)[Fuc(a1-4)]GlcNAc", "in_short": "as §1"}, "[14]": {"target": "Gal(b1-3)[Fuc(a1-4)]GlcNAc(b1-3)Gal(b1-4)[Fuc(a1-3)]GlcNAc", "in_short": "as §1"}, "[15]": {"target": "Gal(b1-3)[Fuc(a1-4)]GlcNAc(b1-6)GalNAc", "in_short": "as §1"}, "[16]": {"target": "Gal(b1-3)[GlcNAc(b1-6)]GalNAc", "in_short": "as §1"}, "[17]": {"target": "Gal(b1-3)[Neu5Ac(a2-6)]GalNAc", "in_short": "as §1"}, "[18]": {"target": "Gal(b1-3)[Neu5Ac(a2-6)]GlcNAc(b1-4)Gal(b1-4)Glc", "in_short": "as §1"}, "[19]": {"target": "Gal(b1-3)[Neu5Ac(b2-6)]GalNAc", "in_short": "as §1"}, "Gal(b1-4)Gal": {"target": "Gal(b1-4)Gal", "in_short": "as §1"}, "[20]": {"target": "Gal(b1-4)GalNAc(a1-3)[Fuc(a1-2)]Gal(b1-4)GlcNAc", "in_short": "as §1"}, "[21]": {"target": "Gal(b1-4)GalNAc(b1-3)[Fuc(a1-2)]Gal(b1-4)GlcNAc", "in_short": "as §1"}, "Gal(b1-4)Glc": {"target": "Gal(b1-4)Glc", "in_short": "as §1"}, "Gal(b1-4)Glc6S": {"target": "Gal(b1-4)Glc6S", "in_short": "as §1"}, "Gal(b1-4)GlcNAc": {"target": "Gal(b1-4)GlcNAc", "in_short": "as §1"}, "[22]": {"target": "Gal(b1-4)GlcNAc(a1-6)Gal(b1-4)GlcNAc", "in_short": "as §1"}, "Gal(b1-4)GlcNAc(b1-2)Man": {"target": "Gal(b1-4)GlcNAc(b1-2)Man", "in_short": "as §1"}, "[23]": {"target": "Gal(b1-4)GlcNAc(b1-2)Man(a1-3)Man(b1-4)GlcNAc(b1-4)GlcNAc", "in_short": "as §1"}, "[24]": {"target": "Gal(b1-4)GlcNAc(b1-2)Man(a1-3)[Gal(b1-4)GlcNAc(b1-2)Man(a1-6)]Man(b1-4)GlcNAc(b1-4)GlcNAc", "in_short": "as §1"}, "[25]": {"target": "Gal(b1-4)GlcNAc(b1-2)Man(a1-3)[Gal(b1-4)GlcNAc(b1-2)Man(a1-6)]Man(b1-4)GlcNAc(b1-4)[Fuc(a1-6)]GlcNAc", "in_short": "as §1"}, "[26]": {"target": "Gal(b1-4)GlcNAc(b1-2)Man(a1-3)[Gal(b1-4)GlcNAc(b1-2)Man(a1-6)][Gal(b1-4)GlcNAc(b1-4)]Man(b1-4)GlcNAc(b1-4)[Fuc(a1-6)]GlcNAc", "in_short": "as §1"}, "[27]": {"target": "Gal(b1-4)GlcNAc(b1-2)Man(a1-3)[Gal(b1-4)GlcNAc(b1-2)Man(a1-6)][GlcNAc(b1-4)]Man(b1-4)GlcNAc(b1-4)[Fuc(a1-6)]GlcNAc", "in_short": "as §1"}, "[28]": {"target": "Gal(b1-4)GlcNAc(b1-2)Man(a1-3)[GlcNAc(b1-2)Man(a1-6)]Man(b1-4)GlcNAc(b1-4)GlcNAc", "in_short": "as §1"}, "[29]": {"target": "Gal(b1-4)GlcNAc(b1-2)Man(a1-3)[GlcNAc(b1-4)][Gal(b1-4)GlcNAc(b1-2)Man(a1-6)]Man(b1-4)GlcNAc(b1-4)GlcNAc", "in_short": "as §1"}, "[30]": {"target": "Gal(b1-4)GlcNAc(b1-2)Man(a1-3)[Man(a1-6)]Man(b1-4)GlcNAc(b1-4)GlcNAc", "in_short": "as §1"}, "[31]": {"target": "Gal(b1-4)GlcNAc(b1-2)Man(a1-6)Man(b1-4)GlcNAc(b1-4)GlcNAc", "in_short": "as §1"}, "[32]": {"target": "Gal(b1-4)GlcNAc(b1-2)Man(a1-6)[GlcNAc(b1-2)Man(a1-3)]Man(b1-4)GlcNAc(b1-4)GlcNAc", "in_short": "as §1"}},
  "note": "Some of the results follow.",
  "data": [
    {"binder": "PX15618A-bth-503-24-503 (Bacteroides thetaiotaomicron) (protein) NKSEDKLSGDDFWAQGNETNAEAFLLSIYNSFRNATMSQRPFLTYSGDMRCAPITAYSTGDKYVAYLANNDMGELRNTYPDDARGGLIMQWDVFYTAIQDANILLAEIDKVPGMDELKRSRFKAEAIFMRSLSYFFIVRAFGDVPYYTNAYNEAPLPRTNMVIVLQNCLADLQPLLDDDPGAEVLPWSYSSYSSKGIRASRGSVIALMMHINLWLVQFDAQNKEQYYRNVVSLGEELERNNGAYSLLDINRSSVIFAGGSDEGLFEIAQNINFNEIFMMNAKFSDNVSYSCLNKSMPLFCYSGDYLMTLFPMYEDDARKELWFDEKIYSTSVSSSAPKEIKKFWNIDTYGNGTITSNSGNQIVFRYAGALLLYAEALAALGTNDTKACELLNRVRNRAHASEINTSGSELMDAIFWERCRELIGEGHYYYDLVRTGKVYNRNYCMNPMTRTNFNVGAWTWPIHRNALKNNTQIGLNLFWE", "values": [
      {"measurement": "glycan array binding signal (z-score)", "setting": "[1]", "result": 0.91},
      {"measurement": "glycan array binding signal (z-score)", "setting": "[2]", "result": 1.4},
      {"measurement": "glycan array binding signal (z-score)", "setting": "[3]", "result": -0.28},
      {"measurement": "glycan array binding signal (z-score)", "setting": "[4]", "result": 0.442},
      {"measurement": "glycan array binding signal (z-score)", "setting": "[5]", "result": -0.35},
      {"measurement": "glycan array binding signal (z-score)", "setting": "[6]", "result": -0.179},
      {"measurement": "glycan array binding signal (z-score)", "setting": "[7]", "result": -0.356},
      {"measurement": "glycan array binding signal (z-score)", "setting": "[8]", "result": 2.58},
      {"measurement": "glycan array binding signal (z-score)", "setting": "[9]", "result": -0.512},
      {"measurement": "glycan array binding signal (z-score)", "setting": "Gal(b1-3)GlcNAc6S", "result": -0.418},
      {"measurement": "glycan array binding signal (z-score)", "setting": "[10]", "result": -0.361},
      {"measurement": "glycan array binding signal (z-score)", "setting": "[11]", "result": -0.521},
      {"measurement": "glycan array binding signal (z-score)", "setting": "[12]", "result": 0.312},
      {"measurement": "glycan array binding signal (z-score)", "setting": "[13]", "result": 0.481},
      {"measurement": "glycan array binding signal (z-score)", "setting": "[14]", "result": -0.351},
      {"measurement": "glycan array binding signal (z-score)", "setting": "[15]", "result": 0.033},
      {"measurement": "glycan array binding signal (z-score)", "setting": "[16]", "result": -0.236},
      {"measurement": "glycan array binding signal (z-score)", "setting": "[17]", "result": -0.385},
      {"measurement": "glycan array binding signal (z-score)", "setting": "[18]", "result": -0.57},
      {"measurement": "glycan array binding signal (z-score)", "setting": "[19]", "result": -0.384},
      {"measurement": "glycan array binding signal (z-score)", "setting": "Gal(b1-4)Gal", "result": -0.33},
      {"measurement": "glycan array binding signal (z-score)", "setting": "[20]", "result": -0.834},
      {"measurement": "glycan array binding signal (z-score)", "setting": "[21]", "result": 0.257},
      {"measurement": "glycan array binding signal (z-score)", "setting": "Gal(b1-4)Glc", "result": -0.45},
      {"measurement": "glycan array binding signal (z-score)", "setting": "Gal(b1-4)Glc6S", "result": 1.42},
      {"measurement": "glycan array binding signal (z-score)", "setting": "Gal(b1-4)GlcNAc", "result": -0.041},
      {"measurement": "glycan array binding signal (z-score)", "setting": "[22]", "result": -0.652},
      {"measurement": "glycan array binding signal (z-score)", "setting": "Gal(b1-4)GlcNAc(b1-2)Man", "result": -0.307},
      {"measurement": "glycan array binding signal (z-score)", "setting": "[23]", "result": -0.35},
      {"measurement": "glycan array binding signal (z-score)", "setting": "[24]", "result": -0.383},
      {"measurement": "glycan array binding signal (z-score)", "setting": "[25]", "result": 0.092},
      {"measurement": "glycan array binding signal (z-score)", "setting": "[26]", "result": -0.771},
      {"measurement": "glycan array binding signal (z-score)", "setting": "[27]", "result": -0.556},
      {"measurement": "glycan array binding signal (z-score)", "setting": "[28]", "result": 0.155},
      {"measurement": "glycan array binding signal (z-score)", "setting": "[29]", "result": 0.057},
      {"measurement": "glycan array binding signal (z-score)", "setting": "[30]", "result": -0.392},
      {"measurement": "glycan array binding signal (z-score)", "setting": "[31]", "result": -0.283},
      {"measurement": "glycan array binding signal (z-score)", "setting": "[32]", "result": -0.448}
    ]}
  ]
}
